Common to all, as to experiment: co-IP; HA-tagged mouse Zdhhc proteins transfected into 293T ZDHHC5 KO and control cells; lysis in 50 mM Tris-HCl pH 7.4, 150 mM NaCl, 2 mM EDTA, 1% DDM; anti-HA magnetic beads overnight at 4 °C; washes in TBS with 0.5% DDM; blots for endogenous GOLGA7 or ZDHHC9
For experiment [1], the target named is HA-Zdhhc5^ANYR (mouse Zdhhc5 Arg144Ala) (mouse) (UniProt Q8VDZ4).
For experiment [2], the target named is T1, HA-tagged mouse Zdhhc19 (mouse) (UniProt Q810M5).
T1 sequence: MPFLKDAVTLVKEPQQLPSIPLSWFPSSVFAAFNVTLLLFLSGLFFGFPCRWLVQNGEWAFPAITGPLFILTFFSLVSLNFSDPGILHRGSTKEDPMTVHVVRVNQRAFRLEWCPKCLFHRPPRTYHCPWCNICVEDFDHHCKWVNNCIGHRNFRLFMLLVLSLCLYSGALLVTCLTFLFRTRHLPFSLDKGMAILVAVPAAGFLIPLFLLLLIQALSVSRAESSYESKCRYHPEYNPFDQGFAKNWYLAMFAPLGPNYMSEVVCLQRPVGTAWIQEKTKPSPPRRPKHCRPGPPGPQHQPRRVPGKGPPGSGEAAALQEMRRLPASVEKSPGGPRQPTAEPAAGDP

Amino acid sequences for entries named in this document (tags omitted). A change or cut given only in a name is not applied to a line headed by its entry. Chains listed by the source or under a name are the forms on record and can include a tag or linker.
UniProt Q8VDZ4: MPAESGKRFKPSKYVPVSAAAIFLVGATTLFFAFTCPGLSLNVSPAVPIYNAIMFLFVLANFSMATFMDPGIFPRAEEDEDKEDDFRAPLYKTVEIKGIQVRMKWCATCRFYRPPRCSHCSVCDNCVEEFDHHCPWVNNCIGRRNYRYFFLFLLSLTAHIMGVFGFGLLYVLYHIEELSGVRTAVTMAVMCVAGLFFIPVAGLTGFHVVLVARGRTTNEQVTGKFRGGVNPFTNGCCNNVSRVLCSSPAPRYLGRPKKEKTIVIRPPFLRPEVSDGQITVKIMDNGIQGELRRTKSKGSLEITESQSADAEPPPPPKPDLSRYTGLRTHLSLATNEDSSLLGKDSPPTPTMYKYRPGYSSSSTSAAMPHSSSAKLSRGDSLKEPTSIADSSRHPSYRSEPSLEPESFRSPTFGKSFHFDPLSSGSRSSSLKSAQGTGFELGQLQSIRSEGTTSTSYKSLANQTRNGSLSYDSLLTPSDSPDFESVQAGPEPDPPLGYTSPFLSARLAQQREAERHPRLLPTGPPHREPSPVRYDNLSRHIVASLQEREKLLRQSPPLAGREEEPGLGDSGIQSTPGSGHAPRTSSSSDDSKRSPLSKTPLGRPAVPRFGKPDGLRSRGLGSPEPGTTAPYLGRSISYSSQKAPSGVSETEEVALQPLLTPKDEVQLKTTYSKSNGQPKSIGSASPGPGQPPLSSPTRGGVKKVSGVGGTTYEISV
HA-Zdhhc5^ANYR (mouse Zdhhc5 Arg144Ala) (Q8VDZ4, form named): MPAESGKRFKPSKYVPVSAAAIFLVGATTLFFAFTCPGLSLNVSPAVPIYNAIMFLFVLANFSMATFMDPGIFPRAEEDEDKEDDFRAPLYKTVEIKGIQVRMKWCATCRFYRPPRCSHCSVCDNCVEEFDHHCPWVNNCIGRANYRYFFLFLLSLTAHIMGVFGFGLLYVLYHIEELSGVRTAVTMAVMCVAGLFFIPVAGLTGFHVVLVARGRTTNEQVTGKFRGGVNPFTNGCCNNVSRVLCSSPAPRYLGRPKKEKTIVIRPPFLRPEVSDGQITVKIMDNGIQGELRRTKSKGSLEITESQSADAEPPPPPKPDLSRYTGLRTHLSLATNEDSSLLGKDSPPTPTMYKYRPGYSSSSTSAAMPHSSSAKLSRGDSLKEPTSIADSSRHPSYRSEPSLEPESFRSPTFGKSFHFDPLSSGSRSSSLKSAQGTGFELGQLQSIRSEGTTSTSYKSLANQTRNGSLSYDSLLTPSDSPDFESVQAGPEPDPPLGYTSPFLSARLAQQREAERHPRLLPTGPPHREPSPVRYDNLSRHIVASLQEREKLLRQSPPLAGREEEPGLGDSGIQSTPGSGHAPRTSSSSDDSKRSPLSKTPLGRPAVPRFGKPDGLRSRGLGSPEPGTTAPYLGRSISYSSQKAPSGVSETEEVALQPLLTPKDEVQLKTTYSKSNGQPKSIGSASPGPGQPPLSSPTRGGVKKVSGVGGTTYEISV
UniProt P59268: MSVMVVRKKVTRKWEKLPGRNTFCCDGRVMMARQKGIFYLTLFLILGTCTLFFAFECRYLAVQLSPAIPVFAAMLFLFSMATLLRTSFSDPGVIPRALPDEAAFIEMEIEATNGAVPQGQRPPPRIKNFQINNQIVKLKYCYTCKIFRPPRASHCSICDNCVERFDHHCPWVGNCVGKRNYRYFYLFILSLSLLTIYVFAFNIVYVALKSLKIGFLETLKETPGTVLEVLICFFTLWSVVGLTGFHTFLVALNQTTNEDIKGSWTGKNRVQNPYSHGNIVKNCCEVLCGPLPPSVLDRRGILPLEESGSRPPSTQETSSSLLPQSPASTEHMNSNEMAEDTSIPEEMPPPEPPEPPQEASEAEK
UniProt Q7Z5G4: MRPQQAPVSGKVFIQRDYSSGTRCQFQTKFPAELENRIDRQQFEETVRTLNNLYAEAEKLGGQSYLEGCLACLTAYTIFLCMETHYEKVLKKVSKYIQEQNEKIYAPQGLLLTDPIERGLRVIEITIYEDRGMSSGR

The target in experiment [3] is T2, HA-tagged mouse Zdhhc12 (mouse) (UniProt Q8VC90).
T2 sequence: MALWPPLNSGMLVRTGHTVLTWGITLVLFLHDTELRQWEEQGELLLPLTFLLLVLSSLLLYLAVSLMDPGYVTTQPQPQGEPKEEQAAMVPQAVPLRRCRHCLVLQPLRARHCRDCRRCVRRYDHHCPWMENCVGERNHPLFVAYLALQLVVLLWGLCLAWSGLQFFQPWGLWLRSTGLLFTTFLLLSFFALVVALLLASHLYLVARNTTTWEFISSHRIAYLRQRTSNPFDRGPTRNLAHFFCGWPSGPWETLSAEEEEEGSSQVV

Experiment [4] deals with HA-tagged mouse Zdhhc9 (mouse) (UniProt P59268).
Experiment [5] has as its target T3, HA-tagged mouse Zdhhc13 (mouse) (UniProt Q9CWU2).
T3 sequence: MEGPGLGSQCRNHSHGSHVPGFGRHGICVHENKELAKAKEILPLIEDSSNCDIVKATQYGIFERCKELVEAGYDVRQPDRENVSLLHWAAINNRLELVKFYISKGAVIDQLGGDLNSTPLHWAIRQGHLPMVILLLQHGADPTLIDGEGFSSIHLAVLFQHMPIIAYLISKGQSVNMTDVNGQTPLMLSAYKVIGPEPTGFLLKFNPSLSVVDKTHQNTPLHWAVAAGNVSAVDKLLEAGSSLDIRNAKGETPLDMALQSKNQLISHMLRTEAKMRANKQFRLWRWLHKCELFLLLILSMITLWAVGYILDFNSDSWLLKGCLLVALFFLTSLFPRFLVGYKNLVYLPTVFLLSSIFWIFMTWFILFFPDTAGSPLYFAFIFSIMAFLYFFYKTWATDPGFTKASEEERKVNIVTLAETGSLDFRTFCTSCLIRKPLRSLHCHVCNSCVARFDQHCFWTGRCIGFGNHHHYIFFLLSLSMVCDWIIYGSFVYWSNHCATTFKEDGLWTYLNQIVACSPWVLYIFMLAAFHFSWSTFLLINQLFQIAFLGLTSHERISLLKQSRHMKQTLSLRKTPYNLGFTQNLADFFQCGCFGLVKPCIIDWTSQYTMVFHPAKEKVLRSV

For experiment [6], the target named is T4, HA-tagged mouse Zdhhc18 (mouse) (UniProt Q5Y5T2).
T4 sequence: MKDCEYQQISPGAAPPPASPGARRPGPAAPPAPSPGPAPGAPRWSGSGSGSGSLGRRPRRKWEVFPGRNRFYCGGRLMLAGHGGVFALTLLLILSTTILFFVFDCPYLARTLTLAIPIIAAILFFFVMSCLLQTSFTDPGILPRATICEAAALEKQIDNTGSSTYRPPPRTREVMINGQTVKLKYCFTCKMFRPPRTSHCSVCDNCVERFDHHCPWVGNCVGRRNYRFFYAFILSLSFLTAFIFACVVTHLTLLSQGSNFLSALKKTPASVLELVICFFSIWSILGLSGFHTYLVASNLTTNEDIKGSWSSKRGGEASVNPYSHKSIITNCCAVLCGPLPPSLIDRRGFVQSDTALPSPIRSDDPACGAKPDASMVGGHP

Results are given in words; binding and its absence hold for the method and conditions named. Binding seen in cells or lysates may run through a third protein. Some binding calls cover weakened binding; strength is not graded here. For part of these data: Where a sequence is shown, tags or fusion partners need not be part of it.

As to “endogenous human golgin A7 (GOLGA7) (from UniProt Q7Z5G4 1-137)”, the binding entry in experiment [1] was “binds”; in experiment [2] it was “no binding”; in experiment [3] it was “no binding”; in experiment [4] it was “binds”; in experiment [5], “no binding”; in experiment [6], “binds”.

The record behind these values is PMC12528901.
